# Measurements: PubChem BioAssay AID504832 (National Center for Advancing Translational Sciences (NCATS), 2011)
# In all, about 310,000 compounds went through this assay and about 18,000 (5.8%) were called active. This list was built around the results that the source calls inconclusive (neither active nor inactive); the mix of calls is not that of the screen. Calls come from the whole dose curve; as a rule, active = well fitted inhibition curve with a large enough effect; inconclusive = small, poorly fitted or top-dose-only effect, or another doubt; inactive = no such curve, though single readings can be large or run the other way. No potency is given beside an inconclusive call; the fits are too rough.
# Test: Primary qHTS for delayed death inhibitors of the malarial parasite plastid, 48 hour incubation
# Details: P. falciparum luciferase growth in erythrocytes; series mostly up to 28.7 µM; activity change, negative = inhibition: at the top concentration
# How it was run: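 A one-generation exposure of luciferase-tagged malaria parasites in RPMI 1640/Albumax erythrocyte culture, 37 C and 5% CO2. Inhibition is inferred from decreased luminescence after adding detection reagent.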
# % is set by controls: 0 for no effect and ±100 for the full control effect; potency is the fitted concentration of half-maximal effect; tags give direction and shape of the fitted curve.
SMILES,"activity change, negative = inhibition",Potency
O=C(NCCN1CCCCC1)Nc1ccc(F)c(Cl)c1,inactive: -17.1%,
c1ccc2c(OCCCN3CCCCCC3)cccc2c1,,"inconclusive [inhibitor, single point]"
COc1ccc(/C=C/C(=O)OCn2c(SC)nnc(C)c2=O)cc1OC,inactive: 5.85%,
O=C(c1ccc2c(c1)OCO2)N1CCC2(CC1)Oc1ccc(Cl)cc1C(=O)C21CC(c2ccccc2)=NO1 (configuration not stated),,active: 11.7 µM
CC(=O)c1ccc(N2CCN(C(=O)c3ccc(Cl)c(NC4=NC5CS(=O)(=O)CC5S4)c3)CC2)cc1 (configuration not stated),,"inconclusive [inhibitor, partial curve]"
COc1ccc(/C=C/c2onc(C)c2S(=O)(=O)N2CCC(C(=O)N3CCC(C)CC3)CC2)cc1,,"inconclusive [inhibitor, partial curve]"
Cc1cc(N)n2nc(C)c(-c3ccc(Cl)cc3)c2n1,,"inconclusive [inhibitor, single point]"
Cc1ccc(C)c(NC(=O)COC(=O)CC2c3ccccc3CCN2S(=O)(=O)c2ccc(F)cc2)c1 (configuration not stated),,"inconclusive [inhibitor, single point]"
CC(=O)Nc1ccc(N=Nc2c(C)[nH]n(C(N)=S)c2=O)cc1,inactive: -0.645%,
CCCOc1ccc(C(=O)NNC(=S)NC(=O)CC)cc1,,"inconclusive [inhibitor, partial curve, poor fit]"
O=C1c2cccc3cc(Br)cc(c23)C(=O)N1Nc1ccccc1,,"inconclusive [inhibitor, partial curve, poor fit]"
CC(=O)c1ccc(Nc2ccc(-c3ccccc3C)nn2)cc1,inactive: -8.09%,
C=CCn1c(SCC(=O)NC2CCS(=O)(=O)C2)nc2scc(C3CC3)c2c1=O (configuration not stated),,"inconclusive [inhibitor, partial curve, poor fit]"
O=C1COc2ccc(S(=O)(=O)CCC(=O)NC3CCCCC3)cc2N1,inactive: -28.6%,
CCN1C(=O)CC(c2ccco2)Sc2ccccc21 (configuration not stated),inactive: -4.96%,
COc1cc(OC)cc(C(=O)N2CCN(Cc3ccc4c(c3)OCO4)CC2)c1,,"inconclusive [inhibitor, single point]"
O=C(NCC1CC1)c1ccc(Oc2cc(Cl)cc(Cl)c2)o1,,active: 11.7 µM
COc1ccc(S(=O)(=O)Nc2ccccc2N2CCOCC2)cc1[N+](=O)[O-],,active: 13.1 µM
NS(=O)(=O)Cc1noc2ccccc12,,inactive
Cc1ccc(C(=O)O)cc1-n1c(C)cc(C=O)c1C,inactive: 18.3%,
COc1ccc(C(=O)NC(C)c2ccncc2)cc1S(=O)(=O)N(C)Cc1ccccc1 (configuration not stated),,"inconclusive [inhibitor, single point]"
CC(C)(C)C(=O)NC(=S)Nc1ccc(C(F)(F)F)cc1,inactive: 13.6%,
COc1ccc(S(=O)(=O)N2CCCCCC2)cc1C(=O)N(C)Cc1ccc(Cl)cc1Cl,,"inconclusive [inhibitor, single point]"
Cc1cc(C)cc(NC(=O)CCNS(=O)(=O)c2ccc3c(c2)oc(=O)n3C)c1,,"inconclusive [inhibitor, single point]"

SMILES,"activity change, negative = inhibition",Potency
CCOc1ccccc1CNC(=O)C1CCN(C(=O)N2CC(C)Oc3ccc(C)cc32)CC1 (configuration not stated),,"inconclusive [inhibitor, partial curve, poor fit]"
CC1(c2ccc3c(c2)OCCO3)NC(=O)N(CC(=O)Nc2c(F)cccc2F)C1=O (configuration not stated),,"inconclusive [inhibitor, single point]"
OCCNCCCOc1ccc(Cl)cc1Br,,"inconclusive [inhibitor, single point]"
c1ccc(CCNc2ccnc3cc4ccccc4cc23)cc1,,active: 0.522 µM
COc1ccc(C2c3ccc4ccccc4c3Oc3ncn(CCN(C)C)c(=N)c32)cc1 (configuration not stated),,active: 2.33 µM
CCOC(=O)N1CCN(c2c(NCCc3ccc(OCC)c(OCC)c3)c(=O)c2=O)CC1,,"inconclusive [inhibitor, single point]"
COC(=O)CCc1c(C)c(C#N)c2nc3ccccc3n2c1N1CCCC1,,"inconclusive [inhibitor, partial curve]"
CCCCCNCC(=O)Nc1cccc(C(=O)Nc2cccc(C(F)(F)F)c2)c1,,active: 4.65 µM
CC(C)(C)NC(=O)C(c1ccc(F)cc1)N(Cc1cccs1)C(=O)c1ccc(CN2CCOCC2)o1 (configuration not stated),,"inconclusive [inhibitor, single point]"
CCOC(=O)/C(N=Nc1c(Br)cc(Br)cc1Br)=C(\C)O,inactive: 5.72%,
COc1ccc(CNC(=S)Nc2ccc(F)c(Cl)c2)cc1,,"inconclusive [inhibitor, partial curve, poor fit]"
O=C(CSc1nnc(-c2ccccc2Cl)o1)N1CCCC1,inactive: 103%,
Cn1ncc(Br)c1NC(=O)Nc1ccccc1,inactive: 3.2%,
Cc1ccc(NC(=S)NC2CCCC2)cc1,inactive: 43.2%,
Cc1c(C(=O)N/N=C/c2c(O)ccc3ccccc23)nnn1-c1nonc1N,,"inconclusive [inhibitor, partial curve, poor fit]"
CCN(CC(=O)Nc1ccc2c(c1)OCCO2)C(=O)CN1C(=O)NC(C)(c2ccc(C)cc2)C1=O (configuration not stated),,"inconclusive [inhibitor, single point]"
Cc1ccc(CSCC(=O)Nc2ccccc2C(=O)O)cc1,inactive: 44.3%,
CC(Sc1nncn1C)C(=O)Nc1ccc(N2CCCCC2)cc1 (configuration not stated),inactive: 44.3%,
CCCNC(=O)c1onc(CSc2nc3ccccc3[nH]2)c1C(=O)NCCC,,"inconclusive [inhibitor, full curve]"
O=C(NC1CCCC1)C(c1ccncc1)N(C(=O)c1csnn1)c1ccc(F)c(Cl)c1 (configuration not stated),,"inconclusive [inhibitor, partial curve]"
C/C(=N\NC(=O)C1COc2ccccc2O1)c1ccc(Cl)s1 (configuration not stated),,"inconclusive [inhibitor, single point]"
O=C(c1cccc2ccccc12)C1CCCN(C(=O)CCN2CCCO2)C1 (configuration not stated),inactive: 0.227%,
Cc1cc(C(=O)NCc2ccco2)c2ccccc2n1,,"inconclusive [inhibitor, single point]"
